# Data taken from PubChem BioAssay AID624296 (National Center for Advancing Translational Sciences (NCATS), 2012).
# In all, about 350,000 compounds went through this assay and about 9,900 (2.8%) were called active. Inconclusive means that the source gave no clear call. Such entries were picked first, then a sample of the others. The call rests on the fitted dose curve; in most records, active means well fitted activation curve with a large enough effect; inconclusive means small, poorly fitted or top-dose-only effect; inactive means no such curve, though single readings can be large or run the other way. No potency is given beside an inconclusive call; the fits are too rough.
# Assay: A quantitative high throughput screen for small molecules that induce DNA re-replication in MCF 10a normal breast cells. Further: nearly all actives have a fitted effect of over 50% in size. On activity, positive = re-replication: % of control where 0% means no effect.
# Settings: MCF 10A DNA re-replication, Hoechst nuclear intensity, 48 h; activity, positive = re-replication: at 46.1 µM (top of the series)
# Potency means the concentration at half of the fitted maximal effect; tags describe the fitted curve by direction and shape.
SMILES,"activity, positive = re-replication",Potency
CCOC(=O)C1(CCCc2ccccc2)CCN(C(=O)c2cnc(C)cn2)CC1,inactive: 4.44%,–
C/C(CC(=O)N1CCN(C=O)CC1)=N\NC(=O)c1ccc(Cl)cc1,–,"inconclusive [activator, single point]"
COc1cc(NC(=O)c2cccc(C)c2)c(Cl)cc1[N+](=O)[O-],–,"inconclusive [activator, partial curve, poor fit]"
CCOc1ccccc1N1CCN(C(=O)C2c3ccccc3Oc3ccccc32)CC1,–,active: 6.51 µM
CC(C)(C)OC(=O)N1CCC[C@H]1c1nnc(SCc2ccccc2)o1,–,"inconclusive [activator, full curve, poor fit]"
Clc1ccc(C2[C@H]3CN(CC4CCCCC4)[C@H](c4ccccc4)C34CC2(c2ccccc2)C4)cn1 (stereo not given in full),–,"inconclusive [activator, full curve, poor fit]"
CCOC(=O)c1cc(-c2ccc(/C=C3/C(=O)NC(=O)C(C#N)=C3C)o2)ccc1Cl,–,"inconclusive [activator, single point]"
COc1ccc(N=Nc2cc(C)ccc2O)cc1,inactive: -2.01%,–
O=C(Nc1ccc2c(c1)OCO2)c1ccc(COc2ccc3c(c2)CCC3)o1,–,"inconclusive [activator, single point]"
Cc1ccc(NC(=O)c2oc3ccc(Br)cc3c2C)cc1S(=O)(=O)N1CCOCC1,inactive: -0.789%,–
CS(=O)(=O)Nc1ccc(-c2nnc3n2CCCCC3)cc1,–,"inconclusive [activator, partial curve, poor fit]"
Cc1cccc(Cc2nnc(CCC(=O)N(C)C3CCOC3)o2)c1 (stereo not given),inactive: 2.86%,–
COc1cc(C2Nc3ccc4ncccc4c3C3=C2C(=O)CCC3)cc(OC)c1O (stereo not given),–,"inconclusive [activator, single point]"
CC(=O)N[C@@H](Cc1c[nH]c2ccccc12)C(=O)OCC(=O)Nc1ccc(Cl)c(S(=O)(=O)N(C)C)c1,–,"inconclusive [activator, single point]"
CCOC(=O)C1=C(C)NC2=C(C(=O)C(C(=O)OCC)C(c3ccc(OC)cc3)C2)C1c1ccccn1 (stereo not given),–,"inconclusive [activator, single point]"
Cc1cc(C(=O)N2CCCC(C(=O)c3ccc(Oc4ccccc4)cc3)C2)n[nH]1 (stereo not given),inactive: -2.03%,–
O=C1[C@@H]2Cc3c([nH]c4ccccc34)C(c3cccc(Br)c3)N2C(=O)CN1C1CCN(Cc2ccccc2)CC1 (stereo not given in full),–,"inconclusive [activator, single point]"
Cc1ccc(S(=O)(=O)NCCC(=O)Nc2ncccc2O)cc1C,inactive: 2.11%,–
Cc1ccc2nc(-c3cccc(Br)c3)cc(C(=O)NCC3CCCO3)c2c1 (stereo not given),–,active: 25.9 µM
COc1ccc(-c2cc(C(F)(F)F)nc(SCC(=O)N(C)Cc3cn(C)nc3C)n2)cc1OC,–,"inconclusive [activator, partial curve]"
O=C(Cc1sc(Nc2ccccc2)nc1-c1ccccc1)NCc1ccccc1,–,"inconclusive [activator, single point]"
COC(=O)c1ccc(NC(=O)C(=O)N2CCN(C(=S)Nc3cccc(OC)c3)CC2)cc1,inactive: -1.67%,–
O=C(CSc1nc2ccccc2s1)Nc1ccc(Cl)c(S(=O)(=O)N2CCOCC2)c1,–,"inconclusive [activator, single point]"
CCn1c(C)c(C2=CCN(S(=O)(=O)c3ccccc3)CC2)c2ccccc21,–,"inconclusive [activator, single point]"

SMILES,"activity, positive = re-replication",Potency
O=C(NC(=S)Nc1ccc(Oc2ccc(Cl)cc2)cc1)c1ccccc1,–,"inconclusive [activator, single point]"
CCOC(=O)c1cc(Sc2ccccc2N)cc(C(=O)OCC)n1,–,"inconclusive [activator, full curve, poor fit]"
CCCCC(=O)Nc1c2c(nn1-c1ccc(C)cc1)CS(=O)(=O)C2,inactive: -3.05%,–
CCC(/C=C1\Sc2ccc(OC)cc2N1CC)=C\c1sc2ccc(OC)cc2[n+]1CCCS(=O)(=O)[O-],inactive: -7.38%,–
CSc1ncnc2c1ncn2CC(=O)C1CCC2C3CCC4=CC(=O)CCC4(C)C3CCC12C (stereo not given),–,"inconclusive [activator, partial curve]"
Cc1cccc(-n2ncc3c2CCCC3NC(=O)C2CCOCC2)c1C (stereo not given),inactive: -13%,–
CN1CCN(C(=O)CCCN2C(=O)/C(=C/c3ccc(Cl)cc3)SC2=S)CC1,–,"inconclusive [activator, partial curve, poor fit]"
COc1ccc(/C=C/C(=O)c2c(O)ccc3c(C)cc(=O)oc23)cc1,–,active: 20.6 µM
O=C(NCc1ccccn1)C12CC3CC(CC(C3)C1)C2,–,"inconclusive [activator, single point]"
CCN1CCN(CC(=O)c2ccc(OC)cc2)CC1,–,active: 2.06 µM
COc1ccc(/C=C2/C(=O)N(c3nc4ccccc4s3)N=C2CSc2ccc(Cl)cc2)cc1,inconclusive: 22% [activator],–
COC(=O)c1c(-c2ccc(C)cc2)csc1NC(=O)Cc1ccc(OC)c(OC)c1,–,"inconclusive [activator, single point]"
NC(=O)C1C(c2ccccc2)=C1c1ccccc1,inactive: -0.879%,–
O=C(Nc1ccc2nc(SCc3ccc(Cl)cc3)sc2c1)c1ccccc1C(=O)N1CCOCC1,–,active: 6.51 µM
O=C(Cc1c[nH]c2ccccc12)NCc1cccs1,–,"inconclusive [activator, single point]"
COc1cc([N+](=O)[O-])cc([N+](=O)[O-])c1NC(=O)N1CCOCC1,–,"inconclusive [activator, single point]"
COc1ccc(C2CC(c3cccc(F)c3)=NN2c2ccc(S(N)(=O)=O)cc2)cc1 (stereo not given),–,active: 2.06 µM
Nc1nc(N(Cc2ccccc2)Cc2ccccc2)nc(C(F)(F)F)n1,–,"inconclusive [activator, single point]"
Cc1oc2cc(Br)c(O)c(Br)c2c1C(=O)c1ccccc1,inactive: 3.43%,–
Cc1nn(Cc2ccccc2)c(Cl)c1C(=O)NCCc1ccccc1,–,"inconclusive [activator, single point]"
Cc1c(C(=O)N/N=C/c2ccccc2)[nH]c2c([N+](=O)[O-])cccc12,–,active: 4.11 µM
Clc1ccc(C2=Nn3c(nnc3-c3n[nH]c4c3CCC4)SC2)cc1Cl,–,"inconclusive [activator, single point]"
CSCc1ccc(C(=O)NCC(c2cccs2)N2CCOCC2)cc1 (stereo not given),inactive: -5.51%,–
CCOC(=O)c1c(-c2ccccc2)csc1NC(=O)CCN1CCOCC1,–,"inconclusive [activator, single point]"

SMILES,"activity, positive = re-replication",Potency
CCCN(CCC)S(=O)(=O)c1ccc(C(=O)Nc2c(C)n(C)n(-c3ccccc3)c2=O)cc1,inactive: -5.23%,–
c1ccc2[nH]c(-c3nc4ccccc4[nH]3)nc2c1,–,"inconclusive [activator, single point]"
Cc1ccc(N=c2oc3cc(O)ccc3cc2C(N)=O)cc1,–,active: 9.2 µM
COc1ccc(CC(=O)N/N=C/c2ccc(C)s2)cc1,–,"inconclusive [activator, partial curve, poor fit]"
c1ccc(CSC2=NNC(c3ccccn3)S2)cc1 (stereo not given),–,"inconclusive [activator, single point]"
CN1CCc2c(OCC(=O)NC3CCCCC3)cccc2C1=O,inactive: -2.49%,–
Cn1c(=O)n(CCOc2ccc(Cl)cc2Cl)c2ccccc21,inactive: 8.26%,–
CCOC(=O)c1sc(=S)n(-c2ccccc2OC)c1N,inactive: 2.76%,–
COc1cc(CNCCN2CCOCC2)ccc1OCc1ccc(Cl)cc1,–,"inconclusive [activator, partial curve]"
O=C1C=CC2C(c3ccc4c(c3)OCO4)CC1N2Cc1ccccc1 (stereo not given),–,"inconclusive [activator, single point]"
COc1cccc(C2CC(=O)Nc3cc4c(cc32)OCCO4)c1OC(C)C (stereo not given),–,"inconclusive [activator, single point]"
Cc1nc(C)c(C(=O)NCc2ccccc2Cl)o1,inactive: 1.19%,–
O=C(c1ccc(C(F)(F)F)cc1)N1CCN(c2ccc(N3CCOCC3)nn2)CC1,inactive: 14.4%,–
O=C(COc1ccccc1F)NCC(c1ccco1)N1CCCC1 (stereo not given),–,"inconclusive [activator, single point]"
CC1CC(C)CN(c2ncnc3c2cnn3Cc2ccc(Cl)cc2)C1 (stereo not given),–,"inconclusive [activator, single point]"
O=C(N/N=C/c1ccco1)c1cc(-c2ccccc2)nc2ccccc12,–,"inconclusive [activator, partial curve, poor fit]"
Cc1c(C(=O)N2CCN(c3ccc(C(F)(F)F)cn3)CC2)oc2ccccc12,–,active: 23.1 µM
O=C(Nc1ccc2c(c1)CCC2)Nc1ccccc1Cl,–,"inconclusive [activator, single point]"
COc1ccc(C(=O)NCC(c2cccnc2)N2CCN(c3ccccc3)CC2)cc1OC (stereo not given),inactive: 9%,–
COC(=O)[C@H](CC(C)C)NC(=O)NC1CCCc2ccccc21 (stereo not given in full),–,"inconclusive [activator, full curve, poor fit]"
CCC(C(=O)OCC(=O)Nc1ccc(SC(F)F)cc1)c1ccccc1 (stereo not given),–,"inconclusive [activator, single point]"
CN1C[C@@H]2C[C@@H](C3=Cc4cc(Cl)ccc4OC3)N3CCC[C@@]23C1=O,–,"inconclusive [activator, single point]"
